# Experimental data reported in ChEMBL document CHEMBL4888484, “Replenishing the malaria drug discovery pipeline: Screening and hit evaluation of the MMV Hit Generation Library 1 (HGL1) against asexual blood stage Plasmodium falciparum ,using a nano luciferase reporter read-out” (2022).
# Hit rate of the full screen: of about 150,000 compounds, about 540 (0.36%) showed an effect of 50% or more. Some of the results follow.
# Tested on: Plasmodium falciparum
# Assay: Primary screen in NF54 nanoGlo assay, in single point, at 2uM, 72h; a lower Z score goes with more inhibition
# Format: functional, Erythrocyte
# Conditions: timepoint 72 hour
SMILES,% Inhibition,Z score
Cc1cc(NC(=O)N2CCc3c(Cl)cccc32)n(C)n1,-16%,2.55
CC(C)(C)CNC(=O)c1ccc(Cl)c(N)c1,-15%,2.17
O=C(Cc1c(F)c(F)c(F)c(F)c1F)NC1CCCCC1C(F)(F)F (stereo not drawn),-8%,1.27
Cc1ccc(N(C)CCn2c(C)csc2=O)c(C)c1,-14%,1.44
CCCn1cc(CNc2nnc(-c3ccoc3C)o2)cn1,8%,-1.29
Cc1nc(-c2ccc([C@H](C)N3CCCCC3)cc2)n(C)n1,-12%,1.88
CN(C(=O)c1ccc(NC(=O)CC2CCC2)cc1)C1CCOCC1,-10%,1.77
COCC[C@H]1CCCN(C(=O)c2cncn2C)C1,-8%,1.22
Cc1ccc(C(=O)N[C@H]2CCCN(Cc3ccccc3)C2)n1C,4%,-0.76
CC[C@@]1(C2CC2)NC(=O)N(CC(=O)c2ccccc2C)C1=O,9%,-1.45
CO[C@H]1C[C@@H](O)C12CCN(c1cccc(C#N)n1)CC2,-16%,2.05
CCOc1ccc(C(=O)N2CCC[C@@]3(C2)Nc2cccnc2N=C3NC2CCCC2)cc1,28%,-3.21
COCCN(Cc1ccc(C)s1)C(=O)NCc1cscn1,1%,-0.13
Cc1c(N2CCC(C(=O)N3CCN(C4CCCCC4)CC3)CC2)c(=O)n(C)c(=O)n1-c1ccccc1,-6%,1.14
CC[C@H](C)NC(=O)CN1C=NS(=O)(=O)c2ccccc21,-10%,1.17
CC(C)(CO)CNC(=O)c1cc(COc2cccc3cccnc23)on1,-3%,0.39
COc1cc(C)c(-c2ccc(C(=O)N(C)Cc3cc(C)no3)cc2)cn1,2%,-0.45
COC(=O)c1nc(NC(=O)Cn2cnnn2)sc1CC(C)C,0%,0.08
Cc1ccc2oc(N3CCC(N4CCOCC4)CC3)nc2c1,-2%,0.29
CCn1c(=O)c2sccc2n(CC(=O)NC2CCCCC2)c1=O,-8%,1.2
COCCn1nnnc1NC(=O)c1ccoc1Cl,4%,-0.77
CC(C)(C)c1ccc(C(=O)N2CC[C@H](Oc3ncc(Br)cn3)C2)cc1,-6%,0.88
O=C(Cc1ccc(F)c(Br)c1)NCCCC1(C2OCCO2)CCOCC1,1%,-0.18
Cc1nc(C)c([C@H](C)NC(=O)NCC2CC2)s1,0%,0.03
Cc1ccc(C2Nc3ccccc3C(=O)N2CC2CCCO2)o1 (stereo not drawn),-44%,5.12
COc1ccc(OC)c(CN2CCc3nc(N4CCCC4)ncc3C2)c1,-3%,0.5
c1ccc(-c2nnc(N3CCC(NCCCn4ccnn4)CC3)s2)cc1,10%,-1.38

SMILES,% Inhibition,Z score
CC[C@H]1C[C@@H](NC(C)=O)C[C@@H](c2ccc(O)cc2)O1,-10%,1.21
C[C@@H](CN1CCN(c2ccccc2)CC1)Nc1cc(C(N)=O)ccn1,-4%,0.79
CC(C)N1C[C@H]2CN(C(=O)CCCc3ccccc3)C[C@@]2(C(=O)N(C)C)C1,-19%,2.57
C[C@H]1CCCCN1CCNC(=O)c1ccc2c(c1)nc1n2CCN(Cc2ccccn2)C1=O,-1%,0.12
COc1cc(C(=O)N2CCC[C@H](C(=O)c3nccn3C)C2)ccn1,-15%,1.93
Cc1cc(C(C)NC(=O)C(NS(C)(=O)=O)C(C)(C)C)c(C)s1 (stereo not drawn),-4%,0.62
Cc1cccc(N(CC(C)(C)C)C(=O)[C@H]2CCc3nc(C)nn3C2)n1,2%,-0.21
Cc1cnc(C(=O)Nc2cccc3ccccc23)cn1,-7%,0.94
C[C@@H](Cc1ccccc1F)NC(=O)c1ccc2c(c1)OCO2,-10%,1.47
Cc1cccc(Cl)c1OCCNC(=O)c1cc(-c2ccc(O)cc2)n[nH]1,-3%,0.41
Cc1cccc(-c2noc(-c3sc(-c4ccccc4)nc3C)n2)c1,0%,0.03
O=C1CC2(CCN(C(=O)N3CCOCC3)CC2)CN1C/C=C/c1ccccc1,1%,-0.14
C[C@H]1[C@@H](C(F)(F)F)OCCN1C(=O)NC1CCC(=O)NC1C1CCCO1 (stereo partly drawn),-14%,1.95
COc1ccccc1CNC(=O)c1ccc(-c2ccsc2)nc1,-2%,0.22
O=C(Nc1ccc(Oc2ccccc2)cc1)c1ccc2c(c1)OCO2,2%,-0.25
CC(C(=O)N[C@H](C)C1CCN(c2ncnc3c2ncn3C)CC1)=C1CCCC1,-1%,0.14
COc1ccc(NC(=O)CCc2c(C)nn(-c3ccc4nnc(C)n4n3)c2C)c(OC)c1,6%,-0.74
COc1ccccc1NC(=O)[C@H]1O[C@@H]2OC3(CCCCC3)O[C@@H]2[C@H]2OC3(CCCCC3)O[C@H]21,-6%,0.93
CN(C(=O)c1cc(C2CC2)[nH]n1)C1CCCCC1,-9%,1.33
CCc1ccc(-n2nnc(C(=O)NCc3ccccn3)c2-c2cccnc2)cc1,-5%,0.48
COc1ccccc1C(=O)Nc1cnc2c(c1)CCC2,-6%,0.95
Cc1nccnc1N1CCO[C@H](c2ccsc2)C1,-11%,1.39
CC(C)(C)c1noc(CCC(=O)N[C@@H](CC(=O)O)c2ccccc2Cl)n1,-10%,1.17
CC(=O)N(c1nc(C)c(C(=O)Nc2nnc(C3CC3)s2)s1)C1CCCC1,-19%,2.44
COc1ccccc1COc1cc(NC(=O)Cn2cncn2)ncn1,-11%,2.17
NC(=O)[C@H]1CCCN(C(=O)c2ccc(-c3ccc4c(c3)OCC4)cc2)C1,10%,-1.23
Cc1noc(C)c1S(=O)(=O)N1CCC(CO)(CCCc2ccccc2)CC1,-8%,1.6
